Measurements taken from PubChem BioAssay AID686978 (National Center for Advancing Translational Sciences (NCATS), 2013).
Among all 420,000 compounds or so, about 64,000 (15%) were called active. This list was built around the results that the source calls inconclusive (neither active nor inactive); the mix of calls is not that of the screen. Calls come from the whole dose curve; as a rule, active = well fitted inhibition curve with a large enough effect; inconclusive = small, poorly fitted or top-dose-only effect; inactive = flat fitted curve, though single readings scatter. No potency is given beside an inconclusive call; the fits are too rough.
Potency is the fitted concentration of half-maximal effect; tags give direction and shape of the fitted curve.

Experiment: qHTS for Inhibitors of human tyrosyl-DNA phosphodiesterase 1 (TDP1): qHTS in cells in absence of CPT; note: nearly all actives have a fitted effect of over 55% in size
Conditions: DT40 Tdp1-/- hTDP1 cells, no CPT, ATP luminescence, 48 h; series mostly up to 46.2 µM
How it was run: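 Seeded 400 DT40-hTDP1 cells/well (vehicle DMSO, no 20 nM CPT); pinned compounds; ≥48 hr at 37 °C; CellTiter-Glo luminescence as viability measure.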
In the case of O=C(c1cc(C(F)(F)F)cc(C(F)(F)F)c1)N1CCC2(CCCN(c3ccccn3)C2)CC1, the Potency is reported as inconclusive [inhibitor, single point]. In the case of Cc1cccc(CN2C(=O)NC(c3ccccc3)(c3ccccc3)C2=O)c1, the Potency is reported as inconclusive [inhibitor, single point]. In the case of COC1CCN(Cc2cn(Cc3ccccc3)nc2-c2cc3ccccc3o2)CC1, the Potency is reported as active: 25.9 µM. In the case of Cc1ccc(CC2SC(=O)NC2=O)cc1Cl (configuration not stated), the Potency is reported as “inactive”. In the case of Cc1ccc(NC(=S)N(CCCN2CCOCC2)Cc2ccco2)cc1, the Potency is reported as “inactive”. In the case of COc1ccc(-c2csc3nc(-c4ccc(F)cc4)oc(=O)c23)cc1OC, the Potency is reported as “inactive”. In the case of CCOP(=O)(c1ccccc1)c1nc(-c2ccccc2Cl)oc1N1CCCCC1 (configuration not stated), the Potency is reported as inconclusive [inhibitor, single point]. With O=C(CN1C2=NCCN2c2ccccc21)c1ccc2c(c1)OCO2 the Potency was inconclusive [inhibitor, single point]. With Cc1[nH]c(=O)[nH]c(=O)c1/C=N/NC(=O)[C@H](C)N the Potency was inconclusive [inhibitor, single point]. With O=C(Nc1ccc(N2CCOCC2)cc1)c1ccc2ncsc2c1 the Potency was inconclusive [inhibitor, single point]. For O=C(c1cccc(S(=O)(=O)N2CCc3ccccc32)c1)N1CCc2ccccc2C1, the Potency was inconclusive [inhibitor, single point]. With CC(C)CCn1c(=O)c2ccccc2n2c(=S)[nH]nc12 the Potency was inconclusive [inhibitor, single point]. With O=C(CSc1nc2c([nH]c3ccccc32)c(=O)n1-c1ccccc1)Nc1ccccc1F the Potency was inconclusive [inhibitor, single point]. With O=[N+]([O-])c1ccccc1OCCN1CCOCC1 the Potency was “inactive”. In the case of NC(=O)c1c(NC(=O)c2ccccc2)sc2c1CCN(Cc1ccccc1)C2, the Potency is reported as inconclusive [inhibitor, single point]. With CC1(C)CC[C@]2(C(=O)O)CC[C@]3(C)C(=CCC4[C@@]5(C)CC[C@H](O)C(C)(C)C5[C@H](O)C[C@]43C)C2C1 (some centres not stated) the Potency was “inactive”. For Cc1nn(-c2ccccc2)c(C)c1CNC(=O)c1ccc(S(=O)(=O)NCc2ccco2)cc1, the Potency was “inactive”. With COC1OC(c2ccccc2)=C(c2cnc(N)nc2)c2ccc(F)cc21 (configuration not stated) the Potency was “inactive”. For CC[n+]1c(/C=C2/C=C(C)CC(C)(C)C2)sc2ccc(OC)cc21, the Potency was active: 1.16 µM. With Cc1ccccc1OCC(=O)Nc1c2c(nn1C(C)(C)C)CS(=O)(=O)C2 the Potency was “inactive”. For C/C(=N\N=C(N)N)c1cccc([N+](=O)[O-])c1, the Potency was active: 13 µM. For Cc1ccccc1OCC(=O)Nc1ccccc1C(=O)NC1CC1, the Potency was active: 20.6 µM. In the case of COc1ccc(C(=O)Nc2cccc(-c3nc4cccnc4s3)c2C)c(OC)c1, the Potency is reported as active: 11.6 µM. For O=C(N/N=C/c1cc2c(cc1Br)OCO2)c1ccccn1, the Potency was inconclusive [inhibitor, partial curve, poor fit]. With CC(O)[C@@]1(O)CC[C@H]2[C@@H]3CC[C@H]4C[C@@H](O)CC[C@]4(C)C3=CC[C@@]21C (some centres not stated) the Potency was “inactive”. For COc1cccc(CC(NC(C)=O)C(=O)NC2CCN(c3nc(C)cc(C)c3C#N)CC2)c1OC (configuration not stated), the Potency was inconclusive [inhibitor, partial curve]. For CCOC(=O)c1ccccc1NC(=O)Cn1c(=O)n(Cc2ccc(C(=O)NCc3ccc4c(c3)OCO4)cc2)c(=O)c2ccccc21, the Potency was “inactive”. With Cc1cc(C)c(NC(=O)C2CCCN2CCOC(=O)c2cccc([N+](=O)[O-])c2)c(C)c1 (configuration not stated) the Potency was inconclusive [inhibitor, single point]. In the case of Cc1cc2oc3ccc(NCCCn4ccnc4)cc3c(=O)c2cc1C, the Potency is reported as active: 14.6 µM. For Oc1ccc(C[C@@H]2CNCCN2CC2(c3ccccc3)CC2)cc1, the Potency was inconclusive [inhibitor, single point]. With O=[N+]([O-])c1ccccc1/C=N/NC1=NCCN1 the Potency was “inactive”. For NCCSc1c(-c2ccc(Cl)cc2)[nH]c2ccccc12, the Potency was inconclusive [inhibitor, single point]. For COC(=O)N/N=C\c1ccc(OC/C=C/c2ccccc2)c(OC)c1, the Potency was “inactive”. In the case of Cc1cccc(-c2nn(-c3ccccc3)cc2CNCCO)c1, the Potency is reported as active: 12.6 µM. In the case of CC(=O)N1c2c(cc(Br)cc2S(=O)(=O)Nc2ccccc2C)CC1C (configuration not stated), the Potency is reported as inconclusive [inhibitor, single point]. With CCN(CC)c1ccc(/C=N/NC(=O)c2cccc(N3CCCC3=O)c2)cc1 the Potency was inconclusive [inhibitor, single point]. With Cc1c(Cl)cccc1NC(=S)NCc1ccccc1 the Potency was inconclusive [inhibitor, single point]. With COc1ccc(C2SCCN2S(=O)(=O)c2ccccc2)cc1OC (configuration not stated) the Potency was inconclusive [inhibitor, single point]. In the case of O=C(OCCOc1ccc(Cl)cc1)c1cc(S(=O)(=O)N2CCCCC2)ccc1N1CCOCC1, the Potency is reported as inconclusive [inhibitor, single point]. In the case of Cc1cccc(-n2cnc3cc(C(=O)NCC4CCCO4)ccc32)c1 (configuration not stated), the Potency is reported as active: 7.31 µM. For COc1ccccc1OCc1nnc(SCC(=O)Nc2ccc(C)cc2)n1C, the Potency was inconclusive [inhibitor, single point]. With O=C(COC(=O)Cc1c(F)cccc1Cl)NNC(=O)c1ccccc1 the Potency was “inactive”. In the case of O=C1COc2cc(S(=O)(=O)CCC(=O)N3CCCCC3)c(Cl)cc2N1, the Potency is reported as “inactive”. With COC(=O)C1=CN(Cc2ccc(OC)c(OC)c2)C=C(C(=O)OC)C1c1ccccc1F the Potency was inconclusive [inhibitor, single point]. With CCN(CC)C(=S)Nc1ccc(C(=O)OC)cc1 the Potency was “inactive”. For CCn1nnnc1SCC(=O)Nc1ccc2c(c1)OCCO2, the Potency was “inactive”. In the case of N#Cc1c(-c2ccccc2)cc(-c2cccs2)nc1SCC(=O)O, the Potency is reported as “inactive”. For CN(CC(=O)Nc1ccccc1Cl)C(=O)COC(=O)c1ccc(S(=O)(=O)C(F)F)cc1, the Potency was “inactive”. In the case of COc1ccc(Nc2nc(N3CCN(S(=O)(=O)N(C)C)CC3)nc3ccccc23)cc1, the Potency is reported as active: 8.2 µM. For Cc1cccc(CSC2=CS(=O)(=O)c3ccccc3N2)c1, the Potency was active: 23.1 µM. For O=C(Nc1cccnc1)C1Cc2c(-c3ccco3)ccnc2O1 (configuration not stated), the Potency was inconclusive [inhibitor, single point]. In the case of COc1cccc(-c2cc3nc(NCc4ccc(C)cc4C)n(C)c(=O)c3s2)c1, the Potency is reported as inconclusive [inhibitor, single point]. For O=C(NCc1ccco1)c1cccn2c(=O)c3c4c(sc3nc12)CCCC4, the Potency was active: 7.31 µM. For COc1ccc(-c2nc(C)c(CCNC(=O)c3ccccc3Br)s2)cc1OC, the Potency was inconclusive [inhibitor, single point]. With Cc1c2cnn(CC(=O)NCc3ccc(F)cc3)c(=O)c2c(C)n1Cc1ccccc1Cl the Potency was inconclusive [inhibitor, single point]. For COc1ccc(N2C3=C(CC4=C2CC(C)(C)CC4=O)C(=O)CC(C)(C)C3)cc1, the Potency was active: 3.26 µM. For COc1ccc(CCNC(=O)C/C(C)=N/NC(=O)C23CC4CC(CC(C4)C2)C3)cc1OC, the Potency was active: 7.31 µM. With FC(F)(F)c1cccc(Cc2noc(CN3CCCC(CN4CCCC4)C3)n2)c1 (configuration not stated) the Potency was inconclusive [inhibitor, single point]. In the case of Cc1ccccc1C(=O)c1c[nH]c(C(=O)NCC2CCCO2)c1 (configuration not stated), the Potency is reported as inconclusive [inhibitor, single point]. With COc1ccc(/C=C2/CCC(CN3CCOCC3)C2=O)cc1 (configuration not stated) the Potency was active: 1.16 µM. In the case of COc1ccc(C(C(=O)NC2CCCC2)n2c(C3CCN(C(C)=O)CC3)nc3ccccc32)cc1 (configuration not stated), the Potency is reported as “inactive”. With CC(=O)c1nn(-c2cccc(Br)c2)cc1C(=O)c1cccc2ccccc12 the Potency was inconclusive [inhibitor, partial curve]. In the case of CS(=O)(=O)Nc1cccc(C2=NN(S(=O)(=O)c3ccccc3)C(c3cccs3)C2)c1 (configuration not stated), the Potency is reported as “inactive”. With Cc1nccc(-c2ccc(-n3cnc4ccccc43)cc2)n1 the Potency was inconclusive [inhibitor, single point]. With O=C(NCc1cc(C(F)(F)F)cc(C(F)(F)F)c1)C1CC(c2ccc(C(F)(F)F)cc2)=NO1 (configuration not stated) the Potency was inconclusive [inhibitor, single point]. For CC(C)N(C)C(=O)c1ccc(OC2CCN(CCc3ccccc3)CC2)cc1, the Potency was inconclusive [inhibitor, full curve, poor fit]. With CCn1nc(C)cc1C(=O)N1CCCC(Nc2ccc(C(C)C)cc2)C1 (configuration not stated) the Potency was inconclusive [inhibitor, single point]. In the case of CCOC(=O)C1CCCN(C(=O)C2CCN(S(=O)(=O)c3c(C)noc3/C=C/c3ccc(C)cc3)CC2)C1 (configuration not stated), the Potency is reported as inconclusive [inhibitor, single point]. For O=C(O)c1ccccc1NC(=O)N1c2ccccc2Sc2ccccc21, the Potency was inconclusive [inhibitor, single point]. In the case of Cn1cccc1Cc1nnc(SCC(=O)NCc2ccccc2)n1-c1ccc(F)cc1, the Potency is reported as inconclusive [inhibitor, partial curve]. With CCOc1ccc(CCNC(=O)COC(=O)c2c(C)nn(-c3ccccc3)c2C)cc1OCC the Potency was “inactive”. With Cc1c(C(=O)Nc2ccccc2)cn2c(nc3ccccc32)c1C#N the Potency was inconclusive [inhibitor, full curve].
